# Data from US10023601B2, “Hydrolysis resistant sialic acid derivatives and methods for their use” (The University of British Columbia, priority 2014, dated 2018).
# Biological target: Pmo188h (Pasteurella multocida, UniProt Q15KI8)
# Type: biochemical
# Conditions: pH 8.5
smiles,measurement,value
"CC(=O)N[C@H]1[C@H]([C@H](O)[C@H](O)CO)O[C@](OP(=O)(O)OC[C@H]2O[C@@H](n3ccc(N)nc3=O)[C@H](O)[C@@H]2O)(C(=O)O)C[C@@H]1O [compound 16, CMP-NeuNAc, reference compound]",transfer of donor to BODIPY-lactose (TLC),mostly complete
"CC(=O)N[C@H]1[C@H]([C@H](F)[C@H](O)CO)O[C@](OP(=O)(O)OC[C@H]2O[C@@H](n3ccc(N)nc3=O)[C@H](O)[C@@H]2O)(C(=O)O)C[C@@H]1O [compound 14, 5-Acetamido-3,5,7-trideoxy-2-(hydrogen 5′-cytidylate)-7-fluoro-D-glycero-b-D-galacto-2-nonulopyranosidic acid diammonium salt]",transfer of donor to BODIPY-lactose (TLC),mostly complete

# Counter-ions that a name gives are not always drawn.
